According to patent US20150064697A1 (priority 2012, published 2015):

Test system: caspases 3 and 7 in p53-WT and p53-null MEFs
Experiment: Caspase-3,7 activity assay (Ac-DEVD-AMC)
Conditions: 1 μM doxorubicin 16 hours

Q: With `COc1cccc2c1C(=O)c1c(O)c3c(c(O)c1C2=O)C[C@@](O)(C(=O)CO)C[C@@H]3O[C@H]1C[C@H](N)[C@H](O)[C@H](C)O1` [doxorubicin] as the compound, how does the “caspase 3 and 7 levels, p53-WT vs p53-null MEFs” value read?
A: higher levels of caspases 3 and 7 in p53-WT than in p53-null MEFs
